# From PubChem BioAssay AID1745853 (National Center for Advancing Translational Sciences (NCATS), 2022)
# This is one part of the list. The main result of the screen is listed elsewhere. These columns were measured beside it and carry no call.
# How the values were obtained:
# Assay in all cases: Primary Screen for Target Class Profiling of Small Molecule Inhibitors of Methyltransferases
# [1] = biological target: Glycine N-methyltransferase (Homo sapiens) (UniProt Q14749); conditions: purified enzyme, MTase-Glo SAH luminescence; measured here: GNMT inhibition; at 40 µM; stronger effect = lower value
# Procedure, shortened: (§1)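 Each enzyme was reacted with SAM and its substrate, with compounds tested once at 40 uM; SAH formed was read by MTase-Glo luminescence.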
# [2] = biological target: Guanidinoacetate N-methyltransferase (Homo sapiens) (UniProt Q14353); conditions: purified enzyme, MTase-Glo SAH luminescence; measured here: GAMT inhibition; at 40 µM; stronger effect = lower value
# Procedure, shortened: as §1
# [3] = biological target: Histamine N-methyltransferase (Homo sapiens) (UniProt P50135); conditions: purified enzyme, MTase-Glo SAH luminescence; measured here: HNMT inhibition; at 40 µM; stronger effect = lower value
# Procedure, shortened: as §1
# [4] = biological target: Nicotinamide N-methyltransferase (Homo sapiens) (UniProt P40261); conditions: purified enzyme, MTase-Glo SAH luminescence; measured here: NNMT inhibition; at 40 µM; stronger effect = lower value
# Procedure, shortened: as §1
# [5] = biological target: Phenylethanolamine N-methyltransferase (Homo sapiens) (UniProt P11086); conditions: purified enzyme, MTase-Glo SAH luminescence; measured here: PNMT inhibition; at 40 µM; stronger effect = lower value
# Procedure, shortened: as §1
# On the % scale 0 is the no-effect control and ±100 the full control effect.
Compound,"activity change, negative = inhibition [1] [%]","activity change, negative = inhibition [2] [%]","activity change, negative = inhibition [3] [%]","activity change, negative = inhibition [4] [%]","activity change, negative = inhibition [5] [%]"
CC(C)C(NC(=O)c1ccc(O)cc1)C(=O)N1CCCC1C(=O)Nc1c(O)cccc1C(=O)O (stereo not drawn),0,5.99,11.1,-5,2.36
CNC(=O)[C@@H](C1CC1)N1CCC[C@H]1C(=O)NCc1cccnc1,0.495,-1.59,0.189,-1.05,1.31
COc1ccccc1CNc1nc2c(S(=O)(=O)c3ccc(C)cc3)nnn2c2ccccc12,1.15,0,4.97,-4.33,0.421
Cc1cc(F)ccc1NC(=O)CCC1CCCN(C(=O)CC2=CCCCC2)C1 (stereo not drawn),-6.06,-6.26,-1.68,-11.8,-16.8
Cc1cccc(C(C(=O)N2CCN(Cc3noc(C)n3)CC2)N(C)C)c1 (stereo not drawn),-1.24,-1.12,1.27,2.46,0.535
CCCC1=Nc2cc(C(=O)NCCCN3CCCCC3CC)ccc2Sc2ccc(C)cc21 (stereo not drawn),-6.83,0.33,-66.4,-27.2,-4.09
CC1CCC2(C=O)C(CO)=CCCC2C1(C)CC(=O)O (stereo not drawn),-10.4,-4.79,-3.79,-16.6,-0.237
COc1ccc(-c2noc(-c3nc(-c4ccc(N(C)C)cc4)no3)n2)cc1OC,-2.06,-0.91,-2.96,1.89,0.059
O=C(Cc1ccccc1)NCc1ccnc2[nH]ccc12,-5.36,-4.36,-2.83,-16.3,4.58
O=C(O)c1cccc(S(=O)(=O)N2CCc3ccccc3C2)c1,1.74,-5.49,1.36,-14.6,-4.11
Cc1ccc(Cn2c(=O)c3ccccc3n3c(CCC(=O)NC4CCCCC4)nnc23)cc1,-5.63,4.02,1.53,7.15,-3.36
COc1ccc(CNC(=O)CCc2nnc3n(CCC(C)C)c(=O)c4ccccc4n23)cc1,-8.3,0.794,7.8,-8.57,1.13
O=C(CN1CCCc2nc(-c3ccncc3)ncc2C1=O)NCc1cc(F)ccc1F,-8.57,-11.9,-5.36,-12.5,-6.12
COc1cccc(CN2C(=O)c3cc4ccccc4n3CC2(C)C(=O)NCc2ccccc2)c1 (stereo not drawn),2.68,1.28,8.82,1.39,1.78
CN(C)CC1(O)CCN(C(=O)Cn2cc(C(=O)C3CC3)c3ccccc32)C1 (stereo not drawn),-4.7,-3.79,-31.9,-9.62,-19.5
Cc1ccccc1NC(=O)N1CCn2cccc2C1C (stereo not drawn),3.35,0,5.25,-6.13,3.21
OCC(O)c1cc2n(n1)CCN(Cc1ccccc1Cn1cccn1)C2 (stereo not drawn),-3.79,-0.146,-1.49,-4.67,7.67
COc1ccc(NC(=O)C2CCN(C(=O)c3ncn4c3COC(c3ccccc3)C4)CC2)cc1Cl (stereo not drawn),-6.05,-8.27,-2.49,-15.8,-11.1
COCCCN1C(=O)CSc2c(c3ccccc3n2C)C1C(=O)NCc1ccc(F)cc1 (stereo not drawn),-8.13,-1.07,-0.728,-1.94,-2.52
Cc1ccc(Cl)cc1NC(=O)Cn1nc2n(CCc3ccccc3)c(=O)c3ccccc3n2c1=O,6.08,0,5.36,4.56,3.68

Compound,"activity change, negative = inhibition [1] [%]","activity change, negative = inhibition [2] [%]","activity change, negative = inhibition [3] [%]","activity change, negative = inhibition [4] [%]","activity change, negative = inhibition [5] [%]"
COc1ccc(-c2cc3nc4c(c(=O)n3[nH]2)CN(C(=O)CN(C)S(=O)(=O)c2cnc[nH]2)CC4)cc1,-41.7,-39.3,-34.9,-42.4,-63.8
O=C(O)[C@H]1CCCC[C@H]1C(=O)N1CCc2ccccc2[C@H]1CN1C(=O)c2ccccc2C1=O,-2.21,4.87,10.8,-11.2,3.23
NS(=O)(=O)c1ccc(F)c(C(=O)NCCSc2ccccn2)c1,-4.41,-2.57,-0.422,-4.52,-4.98
CC(C)NC(=O)c1ccc2c(=O)n(C(C)C)c3nn(CC(=O)Nc4ccccc4F)c(=O)n3c2c1,5.52,1.38,0.376,0.657,5.92
Cc1cccc(Oc2cnc(=O)[nH]c2)c1,-1.8,-3.6,5.19,-14.8,-8.64
CCC(C)NC(=O)c1ccc2c(=O)n(CC(C)C)c3nn(Cc4ccccc4C)c(=O)n3c2c1 (stereo not drawn),-5.92,-2.73,-4.85,-10.2,-5.29
COCCCN1C(=O)c2ccccc2CC1(C)C(=O)NC1CCCCC1 (stereo not drawn),-3.91,-0.46,-3.55,4.5,-6.97
COc1ccc(C(=O)Nc2ccc3oc(-c4ccc(F)cc4Cl)nc3c2)cc1,,6.84,,-7.37,3.42
COc1ccc(OC)c2c1cc1n2CC(C)(C(=O)NC2CCCCC2)N(Cc2cccnc2)C1=O (stereo not drawn),-78,-39.7,-1.62,-21.2,-74.1
Cc1ccc(NC(=O)Cn2c(=O)oc3cc(S(=O)(=O)N4CCCCC4)ccc32)c(Cl)c1,-3.09,0.535,2.52,-1.37,-2.46
CCCn1c(=O)c2ccc(C(=O)NC(C)C)cc2n2c(=O)n(CC(=O)Nc3cc(F)ccc3F)nc12,-1.33,1.82,-1.57,-4.75,1.06
O=C(Nc1ccc(Br)cc1)N1Cc2c(sc3c2CCCC3)-n2cccc2C1c1ccccc1 (stereo not drawn),-3.25,-1.64,-4.57,-9.41,-2.11
COc1cc2c(cc1OC)CN(CCc1ccc(NC(=O)c3cccc4c(=O)c5cccc(OC)c5[nH]c34)cc1)CC2,-69.9,0.65,-55.8,-88.2,-13.3
Cc1ccc([S+](=O)([O-])N2CCCC2C(=O)N2CCC3(CC2)CC(=O)Nc2ccccc2O3)cc1 (stereo not drawn),-5.88,4.12,3.25,-5.92,-2.04
CC1(C(=O)NC2CCCCCC2)Cn2c(nc3ccccc32)C(=O)N1Cc1ccc2c(c1)OCO2 (stereo not drawn),0.157,1.83,6.64,-3.9,1.69
CC1CCN(S(=O)(=O)c2ccc3c(c2)oc(=O)n3CC(=O)N2CCC(Cc3ccccc3)CC2)CC1,-4.97,0.183,0.649,-1.26,-6.05
CC(C)N1C(=O)C2(CCCC2)C1C(=O)NCCCN1CCc2ccccc2C1 (stereo not drawn),-6.31,0.017,-2.03,1.12,1.92
Cc1cc(NC(=O)Nc2ccc(F)c(F)c2)n(-c2ccccc2)n1,1.23,0.895,3.39,-12.7,-2.59
Cc1ccc(C(=O)COC(=O)C(Cc2c[nH]c3ccccc23)NC(=O)c2ccc(C(C)(C)C)cc2)cc1 (stereo not drawn),-1.65,1.14,-6.23,-6.35,-7.82
